Results: PubChem BioAssay AID686979 (National Center for Advancing Translational Sciences (NCATS), 2013)
Hit rate of the full screen: of about 420,000 compounds, about 50,000 (12%) were called active. Inconclusive results, whose numbers are uncertain, are shown with a selection of clear calls. The call rests on the fitted dose curve; in most records, active means well fitted inhibition curve with a large enough effect; inconclusive means small, poorly fitted or top-dose-only effect; inactive means flat fitted curve, though single readings scatter. No potency is given beside an inconclusive call; the fits are too rough.

Test: qHTS for Inhibitors of human tyrosyl-DNA phosphodiesterase 1 (TDP1): qHTS in cells in presence of CPT; further: nearly all actives have a fitted effect of over 55% in size
Details: chicken DT40 Tdp1-/-;hTDP1 cells + 20 nM CPT, ATP luminescence, 48 h; activity change, negative = growth inhibition: at 46.2 µM (top of the series) unless noted
Summary of the method: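 Chicken DT40 Tdp1-/- cells stably complemented with human TDP1 were seeded at 400 cells/well in medium containing 20 nM camptothecin, exposed to pin-transferred compounds, and grown at 37 °C for at least 48 hr. Viability was read as ATP luminescence.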
On the % scale 0 is the no-effect control and ±100 the full control effect; potency means the concentration at half of the fitted maximal effect; tags describe the fitted curve by direction and shape.

Row | Compound | Potency | activity change, negative = growth inhibition
1 | Fc1cccc(NCc2cn3ccccc3n2)c1 | inconclusive [inhibitor, partial curve] | 
2 | C[C@]1(O)CC(=O)C=C[C@H]1Nc1ccccc1 | inconclusive [inhibitor, single point] | 
3 | Cc1nn(C)cc1NC(=O)CC12CC3CC(CC(C3)C1)C2 | inconclusive [inhibitor, partial curve] | 
4 | CCN(CC)CCOC(=O)c1ccc(NC(=O)c2ccc(Cl)c(S(=O)(=O)N3CCCCCC3)c2)cc1 | active: 20.6 µM | 
5 | Cc1c2cnn(CC(=O)NCc3ccccc3)c(=O)c2c(C)n1Cc1cccc(Cl)c1 | active: 4.61 µM | 
6 | Cn1nc(-c2ccc(Cl)cc2)c2cc(C(=O)NCCCN3CCCC3)sc21 | inconclusive [inhibitor, single point] | 
7 | CCOc1cc(C(=O)Nc2ccc3c(c2)OCO3)ccc1OC(F)F | active: 14.6 µM | 
8 | COc1cccc(CNC(=O)CN(C)S(=O)(=O)c2cnc[nH]2)c1 |  | inactive: -19.4%
9 | N#Cc1ccc(CSC2=NCCN2)cc1 | active: 20.6 µM | 
10 | CCN(CC)S(=O)(=O)c1ccc(C(=O)NCCOC(=O)c2ccc(F)cc2F)cc1 |  | inactive: -13.6%
11 | O=C(c1ccc(F)cc1F)N1CCCC(c2nc(-c3ccc(F)cc3)no2)C1 (stereo not drawn) | inconclusive [inhibitor, single point] | 
12 | CCOc1ccc2c(c1)C(=O)c1cc(OCC(=O)O)ccc1-2 | inconclusive [inhibitor, partial curve, poor fit] | 
13 | CC1CCCN(C(=S)SCC(=O)O)C1 (stereo not drawn) |  | inactive: -2.99%
14 | COCCCNC(=O)CSc1nc(-c2cccc(F)c2)[nH]c1-c1ccccc1 | inconclusive [inhibitor, partial curve] | 
15 | Cc1ccc(-c2csc(C(O)c3cccc(Cl)c3)n2)cc1C (stereo not drawn) | inconclusive [inhibitor, partial curve] | 
16 | COc1ccc(C(=O)NC2CCCc3ccccc32)c(OC)c1OC (stereo not drawn) | active: 18.4 µM | 
17 | CCN(CC(=O)Nc1ccccc1C(F)(F)F)C(=O)c1ccc2[nH]c3c(c2c1)CC(C)CC3 (stereo not drawn) | inconclusive [inhibitor, single point] | 
18 | Cc1cc(C)cc(OCC(=O)OC/C(O)=C(\C#N)c2nc3ccccc3[nH]2)c1 | inconclusive [inhibitor, single point] | 
19 | COc1ccc(CCN2C(=O)N(c3ccc(F)cc3)C(=O)C2CC(=O)Nc2ccccc2)cc1 (stereo not drawn) | inconclusive [inhibitor, single point] | 
20 | CCn1nc(C)cc1C(=O)Sc1cccc(Cl)c1 | active: 3.66 µM | 
21 | CC(=O)c1ccc(N2CCN(C(=O)c3ccc(Cn4c(=S)[nH]c5ccc(N6CCOCC6)cc5c4=O)cc3)CC2)cc1 | active: 3.26 µM | 
22 | O=C(COc1ccc(Cl)cc1Br)NCC(c1ccco1)N1CCCC1 (stereo not drawn) | inconclusive [inhibitor, single point] | 
23 | CCN(CC(=O)Nc1c(F)cccc1F)C(=O)c1ccc(Sc2nncn2C)c([N+](=O)[O-])c1 |  | inactive: 1.9%
24 | Cn1cc(S(=O)(=O)c2ccccc2)c(=O)c2cc(F)c(N3CCOCC3)cc21 |  | inconclusive: -32.9% [inhibitor]

Row | Compound | Potency | activity change, negative = growth inhibition
25 | Cc1cc(OCC(=O)NNC(=O)c2cnccn2)cc(C)c1Cl | active: 10.3 µM | 
26 | N#C/C(=C\c1ccc(Cl)cc1)C(=O)NCC1CCCO1 (stereo not drawn) | inconclusive [inhibitor, single point] | 
27 | COc1ccc(-c2cc(C(=O)Nc3c(Cl)cc(Cl)cc3Cl)c3ccccc3n2)cc1OC | inconclusive [inhibitor, partial curve, poor fit] | 
28 | CC(C)[C@H](NC(=O)c1ccccc1Cl)C(=O)Nc1nc(-c2ccccn2)cs1 | active: 5.8 µM | 
29 | CCOC(=O)C(CC(=O)O)NCc1ccco1 (stereo not drawn) |  | inactive: -3.44%
30 | CCOc1ccc(NC(=O)Cc2coc3ccc(C)cc23)cc1 | active: 16.4 µM | 
31 | CCc1cnc2c(c1SCC(=O)Nc1ccc(Cl)cc1)c(=O)n(C)c(=O)n2C |  | inactive: -13.1%
32 | CC(=O)N1N=C(c2ccncc2)OC12CCCCC2 |  | inactive: -9.93%
33 | COc1ccc(OC)c(C(=O)c2coc3ccc(O)c(CN4CCOCC4)c23)c1 | inconclusive [inhibitor, single point] | 
34 | CCCCCNC(=O)C(c1ccnc2ccccc12)n1c(=O)c(-c2ccccc2)nc2ccccc21 (stereo not drawn) | inconclusive [inhibitor, single point] | 
35 | Cc1cccc(-c2nc(CCNC(=O)Cc3ccc(F)cc3)cs2)c1 | inconclusive [inhibitor, single point] | 
36 | Cc1nc([N+](=O)[O-])cn1C(C)C |  | inactive: 22%
37 | CCOc1ccc(C(=O)CC(NCc2cccs2)C(=O)O)cc1 (stereo not drawn) | active: 8.2 µM | 
38 | CN(C)C(CNC(=O)c1ccc(-c2ccccc2)cc1)c1ccccc1 (stereo not drawn) | inconclusive [inhibitor, single point] | 
39 | CCc1nc(Nc2cccc(F)c2)c2oc3ccccc3c2n1 | inconclusive [inhibitor, single point] | 
40 | O=c1c2ccccc2nc(-c2ccccc2)n1Cc1ccc(Cl)cc1 | inconclusive [inhibitor, single point] | 
41 | CC1CCCCC1NC(=O)c1nn(C)c2c1CS(=O)(=O)c1ccccc1-2 (stereo not drawn) |  | inconclusive: -34.2% [inhibitor]
42 | O=C(N/N=C/c1nn(-c2ccccc2)cc1-c1ccccc1)c1ccncc1 | inconclusive [inhibitor, single point] | 
43 | Cc1cc2oc(=O)cc(CN3CCN(Cc4ccccc4)CC3)c2cc1Cl | inconclusive [inhibitor, single point] | 
44 | Nc1c(N(CCO)C(=O)C2CCCC2)c(=O)[nH]c(=O)n1Cc1ccccc1 |  | inactive: -10.5%
45 | COc1ccccc1CNC(=O)Cn1c(=O)oc2cc(S(=O)(=O)N3CCC(C)CC3)ccc21 | active: 5.17 µM | 
46 | CC(C)CC(=O)NC(NC(=S)Nc1sc2c(c1C#N)CCCC2)C(Cl)(Cl)Cl (stereo not drawn) | active: 16.4 µM | 
47 | COc1ccc(NC(=S)Nc2ccc(Oc3ccccc3)cc2)cc1 | active: 23.1 µM | 
48 | CC(=O)N1CCC2(CC1)C/C(=N\NC(=S)Nc1ccc(C)cc1)c1cc(O)ccc1O2 | active: 14.6 µM | 
